The target in assay [1] is T1, FLAG-mCherry2-GGSGGS-SIWWHR.
T1 sequence: GGSGGSSIWWHR
Briefly: co-IP; anti-FLAG magnetic beads, lysate of B16-F10 cells stably expressing FLAG-mCherry2-peptide; room temperature 4 h; blot for STUB1 and FLAG.

Sequences of proteins named here, by UniProt entry; tags and fusion partners are left off. Residues count along the entry.
UniProt Q9WUD1: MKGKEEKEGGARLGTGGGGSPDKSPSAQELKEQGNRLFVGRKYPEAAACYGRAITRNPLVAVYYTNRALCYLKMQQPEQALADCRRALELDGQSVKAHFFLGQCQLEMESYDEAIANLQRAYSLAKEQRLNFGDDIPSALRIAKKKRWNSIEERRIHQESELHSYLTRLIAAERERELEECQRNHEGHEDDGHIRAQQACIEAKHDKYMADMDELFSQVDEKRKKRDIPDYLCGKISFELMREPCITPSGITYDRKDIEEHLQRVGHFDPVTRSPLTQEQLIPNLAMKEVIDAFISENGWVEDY
UniProt Q9UNE7, residues 25-153: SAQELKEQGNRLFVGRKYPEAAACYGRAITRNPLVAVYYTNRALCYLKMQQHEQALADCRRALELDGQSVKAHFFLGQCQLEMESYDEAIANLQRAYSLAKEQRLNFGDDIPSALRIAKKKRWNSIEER

In assay [2] the target is T2, FLAG-mCherry2-GGSGGS-SIWWPD.
T2 sequence: GGSGGSSIWWPD
The assay is described as above.

Assay [3] addresses STUB1 (endogenous, B16-F10 cells) (mouse (endogenous in B16-F10)) (UniProt Q9WUD1). Briefly: co-IP; as the anti-FLAG co-IP from B16-F10 lysate, with synthetic peptide (SIWWPD) added into the co-IP mixture for competitive inhibition; only the binder purified.
The target of assay [4] is Recombinant STUB1 protein, spanning aa25-aa153 (UniProt Q9UNE7). Briefly: thermal shift assay; SYPRO Orange; 100 µM peptide, 10 µM STUB1 aa25-aa153; heated from 25 to 95 °C in 0.5 °C increments; both purified.
For assay [5] the target is unchanged. Briefly: ITC; peptide (200 µM) injected into STUB1 aa25-aa153 (20 µM); 25 °C; PBS pH 7.4, 0.5 mM TCEP, 2% DMSO; one-site binding model; both purified.
The target is the same in assay [6]. The assay can be described thus: fluorescence polarisation; competitive; 15 nM tracer 5-FAM-…, 1 µM STUB1 aa25-aa153, peptide of interest 5 nM to 100 µM; room temperature; PBS pH 7.4, 0.01% v/v Tween 20; 30 min incubation; both purified.

No constants are given. Whether binding was seen depends on the method and setting. For part of these data: In cells and extracts the contact can be indirect. Some results given as binding are weak or reduced against the parent protein; the word gives no strength. For part of these data: Sequences can lack the tags named with a protein.

In the case of “STUB1 (endogenous, B16-F10 cells) (from UniProt Q9WUD1 1-304)”, the binding entry in assay [1] is listed as “no binding”; in assay [2] it was “binds”.
Turning to SIWWPD (N-acetylation; free C-terminal carboxylic acid) [synthetic inhibitory peptide SIWWPD], the binding result in assay [3] is recorded as “binds”.
As for SIWWHR (N-acetylation; free C-terminal carboxylic acid) [synthetic control peptide SIWWHR], the binding result is listed as “no binding (tested: 100 µM peptide)” in assay [4], “no binding (tested: KD > 10 µM)” in assay [5] and “no binding (tested: IC50 > 100 µM)” in assay [6].

These data come from paper PMC9388626, “STUB1 is an intracellular checkpoint for interferon gamma sensing” (Scientific Reports, 2022).
